From the supplement of paper PMC11417369
± gives the standard deviation of the averaged measurements. This is one part of the list.

test system: PfAP2-EXP AP2 domain (GST-tagged); assay: gcPBM binding intensity (ln(normalized median fluorescence intensity)); higher = stronger DNA binding
Procedure, shortened: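 Binding intensity values are the highest Masliner-normalised natural-log median intensity among replicate spots of either probe orientation. The binding step lasted 1 h in 1× PBS with 1% milk, 0.2 mg/ml BSA, 0.5% salmon testes DNA and 0.03% Triton X-100, using GST-tagged P. falciparum DNA-binding domains expressed in E. coli on an Agilent 4 × 180k array of primer-extended double-stranded 36-bp intergenic genomic probes plus negative controls. Alexa488 anti-GST antibody and a 488 nm scan detected bound protein.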

Row | Sequence | gcPBM binding intensity (ln)
1 | AATGTTTATTAACATTGTACTTATAATATGTCACAA [XGTACX_site2974] | 8.38 ± 0.11
2 | AATAATAAAGATCAATGTACATAATAAAAAAAAAAA [XGTACX_site2692] | 8.7 ± 0.46
3 | TATCATGGGTGTATTTCACACACGGATAATCATTTA [CACACA_site8211] | 8.29 ± 0.29
4 | CACATATAAATATTAACACACATAATGAGTTATATA [CACACA_site7316] | 8.18 ± 0.41
5 | TTATTAAGTAAATCACATTTAATTTTTTTTTTTTTT [CACACA_negctrl_site1280] | 7.84 ± 0.2
6 | AAGAAAAAAAAAAAAAGTACATGCAATATGGATCTT [XGTACX_site3106] | 8.69 ± 0.071
7 | TTATACCATATTTATAGTACGTACAAATAAATCAAT [XGTACX_site4975] | 8.67 ± 0.11
8 | AAACAACATATATTAATATGTACATATATATAGATA [GTGCAC_negctrl_site229] | 8.55 ± 0.34
9 | AATAATTGTTAAAGCTGTACAATACTTATATAAGAA [XGTACX_site5729] | 8.7 ± 0.48
10 | TTTTTTTTTTTTGTAACACACAATAATATAACATTA [CACACA_site3411] | 8.43 ± 0.4
11 | TTTTTATTGTTATAGTTATAATATATTATTTGATTA [XGTACX_negctrl_site27] | 8.44 ± 0.4
12 | TATCCTAACTTTAGATGTACACAAATAAAAAAAAAA [XGTACX_site4491] | 8.41 ± 0.4
13 | CCATATAAAATATAAAAACACACGTATATATACATA [CACACA_site1511] | 8.66 ± 0.59
14 | TGTACATATATATAGATATATATAGATATATATATA [CACACA_negctrl_site1678] | 9.41 ± 0.099
15 | ACAAAATGTAGAAAATGTACAAAATTAACAAAAGAA [XGTACX_site5019] | 9.16 ± 0.64
16 | ATTCAATCTTTTAATACACACAATTTATTTCAAAAC [CACACA_site835] | 8.4 ± 0.4
17 | AAATAATGGTTAGCTACACACAAAGCATTTTTTGAA [CACACA_site1016] | 8.38 ± 0.56
18 | TTTTAAAAAGATCATTAAAAAAAAAAAAAGAACAAA [CACACA_negctrl_site528] | 8.53 ± 0.41
19 | ATAATATAACAATACGCACACGTATACAAAAAAAAA [CACACA_site5703] | 8.63 ± 0.3
20 | TTGTATATATTTATATGTACATATATTACTTTTGCT [XGTACX_site2449] | 8.44 ± 0.38
21 | TGTCTTGTAAATTATTGTACTATTTAAAGTATACAA [XGTACX_site7864] | 8.41 ± 0.3
22 | AAAATACAAACAAGTGGTACTGTTTATAAATGGTTG [XGTACX_site1503] | 8.3 ± 0.31

Row | Sequence | gcPBM binding intensity (ln)
23 | TTTTTTTTTTGAAGTGCATGTTACGATGAAAAAAAA [TGCATGCA_site64] | 8.81 ± 0.33
24 | GTATATTAATAAACATGTACACAATTTATTTATATT [XGTACX_site1012] | 8.52 ± 0.35
25 | TTTTTTTTTAAATGTTGTACATTATATTTGTGTATA [XGTACX_site8354] | 8.44 ± 0.33
26 | ACATATAAAATGATGCGTACATATTTGATCATATAC [XGTACX_site153] | 8.86 ± 0.57
27 | CTAAATAACTTAAGGTGTACGTTTCCAATAAAAAAA [XGTACX_site1742] | 8.34 ± 0.34
28 | TGTAGCCTGGAGAAGAGTACATAGTATCTGGTAGCT [XGTACX_site4943] | 8.61 ± 0.49
29 | CGTATGTGCGGACATGCATGCAATATACAAGAAAAA [TGCATGCA_site145] | 10.2 ± 0.28
30 | TTTTTTTTTACTGCATGTACTTGATGTAAATAAATT [XGTACX_site3045] | 8.85 ± 0.32
31 | AATGGAAATTTTTCTTGTACACATATATGACATGTT [XGTACX_site1691] | 8.62 ± 0.39
32 | AATATGACGTAGTGGTGTACACACATGGTACCTTTA [XGTACX_site3147] | 9.05 ± 0.36
33 | TTAGAACTATTTTATACATGCAGTTATTTAATACTT [TGCATGCA_site1039] | 8.65 ± 0.21
34 | TTATAAATATAATTTTGTACATATATATATATATAC [XGTACX_site5064] | 8.29 ± 0.3
35 | AAAAGATAATTATGCACACACACACCCCCACCCAAC [CACACA_site2570] | 10.67 ± 0.099
36 | TATAGAATAATCTATAAACACACAAACACAACAAAA [CACACA_site9374] | 8.96 ± 0.45
37 | CACGCACGCAGACACACACACACACGCACATATATA [CACACA_site6303] | 8.74 ± 0.44
38 | ACAACAATTCACTTGATGCACTAACCAAAAAAATAA | 8.69 ± 0.26
39 | ACATATATTTTTTTTTGTACATATAAATATATATAT [XGTACX_site6491] | 9.04 ± 0.11
40 | AAAAAAATAATCATCACACACGGAGAATGTCCAATA [CACACA_site5305] | 8.49 ± 0.56
41 | ATATATTTTCCTTCAAGTACACATATAAATGTGTAT [XGTACX_site6633] | 8.64 ± 0.33
42 | ATTAAAATATAAGTCACACATATATATATATATATA [CACACA_site6145] | 10.2 ± 0.33
43 | TATTTTTTTTTATTTTTTTTTATTTTGTTTTTTTAT [TGCATGCA_negctrl_site315] | 8.21 ± 0.53
44 | AATATAATAATATTTTGTACATATCCTATGTATGAG [XGTACX_site8601] | 8.43 ± 0.32

Row | Sequence | gcPBM binding intensity (ln)
45 | AACGTAAAACATATCTATCAAAATAAATCATTAATC [TGCATGCA_negctrl_site68] | 8.44 ± 0.35
46 | ATGAATACAAAATTATACAAAATTATCAAAAGTATG [CACACA_negctrl_site1453] | 8.38 ± 0.35
47 | ATACATAAATATATATGTACATATATATATATATAT [XGTACX_site1055] | 9.98 ± 0.42
48 | TGCAGTCTGGAGAAACGTACATAGTATCTGGTAGCT [XGTACX_site4937] | 8.78 ± 0.41
49 | AAAATATATTTAAATTGTACACGTTACCATAACAAT [XGTACX_site2598] | 8.63 ± 0.33
50 | CTTTTTATTTAGAACACACACAAAAAAAAAAAAAAA [CACACA_site1761] | 8.19 ± 0.46
51 | ATATATTAATAATTTTGTACGCATTTCCTTTTTATT [XGTACX_site1638] | 8.93 ± 0.46
52 | AAAAAAAAAAAAAAATGTACAAATAAAGAAATATGA [XGTACX_site4371] | 8.64 ± 0.69
53 | GAAAATATTTCCGTATGTACTTATTTTAGTCTACTA [XGTACX_site471] | 8.62 ± 0.57
54 | AATATTTTCTTGTACGCATGCACATCCAAATTATAT [TGCATGCA_site873] | 9.84 ± 0.33
55 | TGACCTGTTCAGGTAACACACATATAAACACATACA [CACACA_site4186] | 8.8 ± 0.43
56 | GTGTATAGAATGGTTTCTTTTAAGGTTTTTATTTTT [CACACA_negctrl_site564] | 8.57 ± 0.42
57 | AGGTTCTTTTTAAATGGTACACATAATTTGAAGATA [XGTACX_site400] | 8.47 ± 0.26
58 | TCTTAAAAGGGGAATGGAATGGAGAAAATGAAATAA [GTGCAC_negctrl_site30] | 8.71 ± 0.54
59 | ATACCCACTTAAAATACACACACACCGAAAAAAAAA [CACACA_site8867] | 8.61 ± 0.61
60 | AATAAGAGGATACATTGTACATAAAAAAAAAAAATA [XGTACX_site1815] | 8.67 ± 0.48
61 | TTTTGAAGCTTTAAAACATATATATATATATATATA [CACACA_negctrl_site184] | 10.3 ± 0.4
62 | AGCAAAACAAAAAAATTAAAATTAACATATAATCAT [GTGCAC_negctrl_site393] | 8.44 ± 0.2
63 | TATTGTTCTTATTTAGTGCATATATAATATAATATA [GTGCAC_site9827] | 8.78 ± 0.35
64 | ATGTTCTTATTATTGGTGCAAGAATACACAAGAAAA | 8.78 ± 0.23
65 | TATGTGAATAAATAAGCACACATAAACACATATATA [CACACA_site9359] | 8.82 ± 0.44
66 | AACACATAATAAAATTGTACCCAACATTTCTTTTGA [XGTACX_site8061] | 8.31 ± 0.41

Row | Sequence | gcPBM binding intensity (ln)
67 | ATAAAAATTTAAAAAGAACACACGAAAGAAGGACTT [CACACA_site3929] | 8.95 ± 0.49
68 | GTGAGCTCAGACTACACACACAAAGAAAAAAATAAA [CACACA_site1553] | 8.67 ± 0.51
69 | ATATTTTTAGGTGATTATTATTCGGAGAAGCGAATT [CACACA_negctrl_site1097] | 8.29 ± 0.47
70 | AATACCTACCAAACATGTACATACGCTTCTCAAATA [XGTACX_site5535] | 8.88 ± 0.39
71 | TATATAAACACGTACACACACATATCTGTATTTATA [CACACA_site5858] | 8.88 ± 0.2
72 | ATACAACAAAAATAAGCACACACAAATATACATACA [CACACA_site9201] | 8.82 ± 0.41
73 | AACAAATACAGACACACACACACACCCAAAAAAAAA [CACACA_site515] | 8.51 ± 0.52
74 | TCCATATTTGTTCACACACACACATATTTATATATA [CACACA_site3570] | 8.84 ± 0.42
75 | ATTAAATGTTATATTTGTACATATTATATATATATA [XGTACX_site5095] | 9.62 ± 0.37
76 | TTCATTTTTTATTATAGTACACATAATATTTGCAGA [XGTACX_site4032] | 8.55 ± 0.27
77 | TTTGTTATTTTTTATTGTACTTTTTTTCTTTCATAA [XGTACX_site4302] | 8.85 ± 0.43
78 | TTTTTTAAATGTATTAAAATTATATATATATATATA [GTGCAC_negctrl_site570] | 10.2 ± 0.25
79 | AATCAAAACAACAATAGTACATAAAAAAACAAAACA [XGTACX_site4181] | 8.77 ± 0.49
80 | ATACATAAATTTAGAAGTACATAACAAATTTTTAAA [XGTACX_site7448] | 8.55 ± 0.33
81 | AAAAAAAAAAAAAACACACACACAAATACAAATGGT [CACACA_site1721] | 8.79 ± 0.56
82 | TTTCTTATTTTGGATTGTACGTATATTTTTCATTTT [XGTACX_site224] | 8.93 ± 0.38
83 | TCCTATATATAAATATTAATATATATGTATTGGTAT [GTGCAC_negctrl_site23] | 8.29 ± 0.41
84 | TATAATAATAATTATACATGCATGAATATTTATATG [TGCATGCA_site811] | 8.86 ± 0.16
85 | ATGGACAAGTTAAACGCACACAAATATATACACCCA [CACACA_site8478] | 8.91 ± 0.36
86 | AATAAAAAAAATAGCATACACACATATATACATATA [CACACA_site659] | 8.45 ± 0.25
87 | AACAAAAAAAAAAAAAAAAAAAAAAAAAAAAAAATG [CACACA_negctrl_site1127] | 7.91 ± 0.51
88 | TTACACATGAGAAAATGTACATATAATAAAATATGT [XGTACX_site904] | 8.62 ± 0.33
